# According to publication PMC12136788:
# The other results are listed elsewhere or left out.
# T1: UNK ZnF1-3 (human, UniProt Q9C0B0 31-174)
# T1 sequence: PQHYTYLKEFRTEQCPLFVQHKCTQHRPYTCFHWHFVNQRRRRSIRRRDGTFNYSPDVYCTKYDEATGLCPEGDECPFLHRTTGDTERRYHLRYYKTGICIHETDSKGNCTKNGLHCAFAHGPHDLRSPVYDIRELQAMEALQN
# B1: chr7:19721593:19721594:+_ENSMUSG00000050428_ENSMUST00000053109|mus_mus|motif|central (ssRNA)
# RNA: GGGAGUUCUACAGUCCGACGAUCAUUGGGUAAGUUGCCAUCUGGUGAAUGGGGCUCUCGGACAUUGGAGAUUCGGAAAGCGGUACGCACCUCGCCGGGCCCAGGGCCUGGCCGUUCCUCCUUGCGGAGACCCUUGGUAGGAGGCAACAGAGGAUUGAGCAUCA
# B2: chr8:11614781:11614782:-_ENSMUSG00000031508_ENSMUST00000169782|mus_mus|FALSE|FALSE (ssRNA)
# RNA: GGGAGUUCUACAGUCCGACGAUCAGCGAAGAGCUUCUUUCUCCUGCCUGACCAGGAAGGGAACAAUGCUGUCUCCAUAAAGGAGAGGCUCUGGCUUUUACCACUUUUCCUCUGUUAGGCAAAACAGCCUCUGCUGAUUUCAGACAACAGAGGAUUGAGCAUCA
# B3: chr17:57746147:57746148:+_ENSG00000141367_ENST00000269122|hu_mus|FALSE|FALSE (ssRNA)
# RNA: GGGAGUUCUACAGUCCGACGAUCUUGCCCAGUCUUGCAAGCCGCCUGAAUAUAUUUAAAGUGCACAUCUGGGUCCUGACUAAAGUUAACAAUGGACCCCAGAAAAUAAAAGAGACCUUCAAAACUCUUGAAUGAUUCAAAGAGCAACAGAGGAUUGAGCAUCA
# B4: chr14:66974463:66974464:+_ENSMUSG00000022044_ENSMUST00000074523|mus_hu|mus_mus_mus_hu_False|28_38 (ssRNA)
# RNA: GGGAGUUCUACAGUCCGACGAUCUUGUAGGACGACUUAUUCAGGGGAUCGGCCAGGAAGCAGGAGCAGAACAAGGACACCAGCGGGAGCUCCUUCAUCUUCUCCUUAUAGGCUGCAAGGGUCAUGUUUCUGGGAUCUGGUGGCCAACAGAGGAUUGAGCAUCA
# B5: chr12:57064132:57064133:-_ENSG00000110958_ENST00000262033|hu_hu|FALSE|FALSE (ssRNA)
# RNA: GGGAGUUCUACAGUCCGACGAUCAGACAUGUCUUCAUCUGAAUCAUCUUCCCAGUCUUUCCAAUUAUUGAAGUCGACACUAAGCCAAUUAAGCUUUGCCCUUUCUUUUGUUAACCUUGGCCAUGACUGGCCAGAUUCUCCUUUCAACAGAGGAUUGAGCAUCA
# B6: 25286590_25286710_898_CDS_ENSMUSG00000054793_ENSMUST00000068023|mouse|control|control (ssRNA)
# RNA: GGGAGUUCUACAGUCCGACGAUCCGCCGCCUCGCAGGUGUAGGUGCCGUUAUCUGCAGAUACCAGGCCAGGUAGCGUGAGCGUCUCGCCCACCGCCUCCGCCCUCUCUGGCAGAGACUCAUUCCCACGGUUCCAGCGGAUCUGCAACAGAGGAUUGAGCAUCA
# B7: chr1:58468927:58468928:-_ENSMUSG00000026034_ENSMUST00000148330|mus_mus|mus_mus_mus_hu_False|48_98 (ssRNA)
# RNA: GGGAGUUCUACAGUCCGACGAUCAAUUACUGAAAAAUGAAAGAUGUACCUUAGCUAUGUACUUAAUGAACCAAAUUACCCAAACAACAUAAAAUGUGCAAUAUAAAAAUGUUAAGAAUUUACAAAGCUGUACAAAAUAACUUACAACAGAGGAUUGAGCAUCA
# B8: 86424909_86448781_792_3pUTR_ENSMUSG00000018171_ENSMUST00000018315|mouse|control|control (ssRNA)
# RNA: GGGAGUUCUACAGUCCGACGAUCCCGUGAUGCAAAGUCUUGUGCAGCCUCUGCAUGUUCCAGCAUUUCUUCAAAUUCCUGAUACUCUUCAUCAUCUGGUUCAGCACCUGAGAGGCGAGCUGCCCUGGCCAUGAAAUAUGGAGGCAACAGAGGAUUGAGCAUCA
# B9: 7796676_7796796_820_CDS_ENSG00000170004_ENST00000380358|human|control|control (ssRNA)
# RNA: GGGAGUUCUACAGUCCGACGAUCUAUGGGGGUGGCCGACGAGACAGCAGCUGACACCUGCUCAGCUACAGCUGCUGCUGCUGCUGCCGCUGCCGCCGCCACAGCAGCUGCUGACCCCUUGAAGGGGUUGUUGGCACUGAACUCCAACAGAGGAUUGAGCAUCA
# B10: chr17:62495991:62495992:-_ENSG00000108654_ENST00000581693|hu_mus|motif|central (ssRNA)
# RNA: GGGAGUUCUACAGUCCGACGAUCCACCAUAAUUACUGCUGCACUGCAGUCAUUUCUGCAUUUCCCAUGUUUCUUAAAUAACGGUCUUGUCUGAUAACACACAAUAUAAAGAGCAAUUAUGAAAAACAGACAUUUACAUAUACUCAACAGAGGAUUGAGCAUCA
# B11: chr13:100201707:100201708:-_ENSMUSG00000052727_ENSMUST00000064762|mus_mus|FALSE|FALSE (ssRNA)
# RNA: GGGAGUUCUACAGUCCGACGAUCACUGACGUCUAUUUGUGUUGGAGAUACAUCUCCUCCCAAUUUCCUUUCAUCCAAAGCUAGAGCUGAUUGAGAACUCAUGGUUUCAACAUCACUGGUUUUCUUUUCUGGACCAAAGUCUUCCAACAGAGGAUUGAGCAUCA
# B12: chr4:88365945:88365946:-_ENSMUSG00000070923_ENSMUST00000094993|mus_mus|FALSE|FALSE (ssRNA)
# RNA: GGGAGUUCUACAGUCCGACGAUCACUUGUAUAGCCAUUUACUAAACAAUAUCAAGCCAAACCAAAAAAAAAAAAGGGUCUAAGUUACCUUUUUGUCUAUUAACUGUAGCAAUAAGGAGAAACAAUACAAGGGGAUGAACAAGACAACAGAGGAUUGAGCAUCA
# B13: chr10:90611280:90611281:-_ENSMUSG00000019961_ENSMUST00000072239|mus_mus|motif|central (ssRNA)
# RNA: GGGAGUUCUACAGUCCGACGAUCGAUUUAAAAGCAAGUCAGUUAUACUUUUAAAUCAAAUUACAUCGGGAAUUAUAUGCCGGAAACAAACAAAAAUAACACCCAGACUCAACCCAAAACAAAAAACCCAAAAAUCCCUGGCUGCAACAGAGGAUUGAGCAUCA
# B14: chr6:149979360:149979361:-_ENSG00000131023_ENST00000543571|hu_mus|motif|central (ssRNA)
# RNA: GGGAGUUCUACAGUCCGACGAUCAGGGAAUGAUUGGGAAAAUACAAAUAGAUUCAUUAAAAACAGACUGAUUAUUUGUUCGGGUACAUUCAGAAAUAUCCAAAAACAGUUGUUAUAUUGCAAAGCUGUAAUUUUUCCUAGCAACAACAGAGGAUUGAGCAUCA
# B15: chr4:133834700:133834701:-_ENSMUSG00000050890_ENSMUST00000105876|mus_mus|FALSE|FALSE (ssRNA)
# RNA: GGGAGUUCUACAGUCCGACGAUCGUAGAAGUCCGUCCCGCAUGCCGUGGAAAGGAAACACUUGUUUACACUGACAGGUUCUUCUGGGUUCUGCCCAGAUGCUGAGCAAACUUUACUUAGGCCGAAAUCAGCCACUUUGAGUGUCAACAGAGGAUUGAGCAUCA
# B16: chr1:6260860:6260861:+_ENSMUSG00000025907_ENSMUST00000027040|perfect_dup|motif|central (ssRNA)
# RNA: GGGAGUUCUACAGUCCGACGAUCUGGUUUGAGAUCCAGGGCAGGAAGAGACUCUGAGUGCAGAAAAUAUAAAGUAGGACGGACAGUAAACAAUACAUAAUUGUCGUGCCGCUCAUCUAGGAUGAUGAGAACCAAAUCUCCCACCAACAGAGGAUUGAGCAUCA
# B17: chr7:156759685:156759686:+_ENSG00000146909_ENST00000275820|hu_mus|FALSE|FALSE (ssRNA)
# RNA: GGGAGUUCUACAGUCCGACGAUCCAGCAGAUGAACCAGAUUUGAGAACUUAGUGUCUGGCAAAUUUUCUAAGUCCCGAAAUUUGUCCCAUAUGCUGAACUGGAAAGUCAUCUGGAAUCUCCUUUCAUAGUCACAGAAUUUGCUCAACAGAGGAUUGAGCAUCA
# B18: chr4:57314706:57314707:+_ENSG00000128050_ENST00000264221|hu_mus|hu_hu_hu_mus_True|38_88 (ssRNA)
# RNA: GGGAGUUCUACAGUCCGACGAUCCAGAAUUUCAAAAAUAGCUUGUGUAGCAUGACUCAUGAUGUCCACUUCAGUCUGCCCUAUAACAAGGCCAGCAAAGCAAAAUUUUGCAGCAAUGAGUUGCUCCUCAGACCACUGUGGAUCCAACAGAGGAUUGAGCAUCA
# B19: chr11:60965468:60965469:-_ENSMUSG00000042506_ENSMUST00000041683|mus_mus|motif|central (ssRNA)
# RNA: GGGAGUUCUACAGUCCGACGAUCCUAACCACAGUACAAUCAUUGGAUUUUUUUUCCCUCACGAUUUUUUAUUUCAAAGCGGUAAUAAAUGAAACAAACCACUUGUCAAAAAGAACAAUGAUUUUACACAAGGAAAAGCAUACACAACAGAGGAUUGAGCAUCA
# B20: chr2:153237265:153237266:-_ENSMUSG00000061411_ENSMUST00000109784|mus_mus|mus_mus_mus_hu_False|18_98 (ssRNA)
# RNA: GGGAGUUCUACAGUCCGACGAUCAAAAAAAAAAAAAGAAAAGUGUCCUUGUGCCCAAAGUCUCAGGUGCUUGGAGUGUGGCUAGAAACAGCUCUUUUGGAUCCCACCUCUUUCAAAAAACAGUGUAACCAACUGGUGAGGCAGCAACAGAGGAUUGAGCAUCA
# B21: 142074278_142075813_3790_CDS_ENSG00000114127_ENST00000264951|human|control|control (ssRNA)
# RNA: GGGAGUUCUACAGUCCGACGAUCUCCAGAUCCCUGUAAGGACUGCCAAAUGUUGCAGAAUUCAUCAUCAUCUUUAGUAGGUACUUGAGUAGGAACAAAAAGUGAUUGAGGGGAAUGGUUGAGGGCUCCCAAAUGCCCAGAGGACAACAGAGGAUUGAGCAUCA
# B22: chr6:38652254:38652255:-_ENSG00000124767_ENST00000373365|hu_hu|hu_hu_hu_mus_False|98_98 (ssRNA)
# RNA: GGGAGUUCUACAGUCCGACGAUCCGAGAACUUCAUAAUGGGAAAAUCAAGCUUCUGCAGGAGGGUCAGUCCAAGAACCCUCGUAUAAAAAUCCAGGGACUUCUUAGGAUCCUUAAUUCUUAGCAUCGUUUGCUGCAGUAGAAACAACAGAGGAUUGAGCAUCA
# Molecular target: T1, UNK ZnF1-3
# Test: nsRBNS (natural sequence RNA bind-n-seq); RBNS binding buffer (assumed for nsRBNS): 25 mM Tris pH 7.5, 150 mM KCl, 3 mM MgCl2, 0.01% Triton X-100, 500 ug/ml BSA, 20 U/ml SUPERase-In, 4 C; UNK is unkempt and MSI1 is Musashi-1; names of the RNAs are library labels; protein concentration not given here; high values mean tight binding
row,Binder,binding signal [enrichment R]
1,B1,0.979
2,B2,0.763
3,B3,2.29
4,B4,1.81
5,B5,0.524
6,B6,0.515
7,B7,2.12
8,B8,0.766
9,B9,0.423
10,B10,0.931
11,B11,0.481
12,B12,1.37
13,B13,1.83
14,B14,0.849
15,B15,0.614
16,B16,2.34
17,B17,0.88
18,B18,0.952
19,B19,0.852
20,B20,2.94
21,B21,1.33
22,B22,1.03
